# Test results from the supplement of paper PMC3334620.
# The full ranking holds about 33,000 sequences; the median of “E-score (-0.5 to 0.5)” is about -0.032, and the highest 2% start at about 0.36. The list shows a part of the results.
# Target: T1, Sko1 (UniProt Q02100)
# T1 sequence: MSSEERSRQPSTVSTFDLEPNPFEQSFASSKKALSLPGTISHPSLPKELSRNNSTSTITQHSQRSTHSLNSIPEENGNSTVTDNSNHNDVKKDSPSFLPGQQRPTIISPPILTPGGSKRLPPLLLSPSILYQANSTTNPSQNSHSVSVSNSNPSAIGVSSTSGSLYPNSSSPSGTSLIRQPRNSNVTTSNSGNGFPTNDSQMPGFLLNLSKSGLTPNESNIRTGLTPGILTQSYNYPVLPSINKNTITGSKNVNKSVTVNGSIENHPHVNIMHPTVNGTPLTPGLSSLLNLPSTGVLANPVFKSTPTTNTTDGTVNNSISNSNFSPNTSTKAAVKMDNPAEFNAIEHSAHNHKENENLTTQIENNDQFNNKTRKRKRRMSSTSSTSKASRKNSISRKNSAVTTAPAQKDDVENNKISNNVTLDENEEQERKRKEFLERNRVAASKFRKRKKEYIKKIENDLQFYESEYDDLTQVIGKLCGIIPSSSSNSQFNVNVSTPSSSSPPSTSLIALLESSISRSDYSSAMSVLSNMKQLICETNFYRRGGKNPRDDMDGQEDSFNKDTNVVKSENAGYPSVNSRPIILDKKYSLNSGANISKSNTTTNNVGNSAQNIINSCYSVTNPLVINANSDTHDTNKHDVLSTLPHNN
# Assay: PBM E-score (8-mer binding enrichment) (E-score (-0.5 to 0.5)); higher = stronger / more preferred TF binding; most listed sequences are background and not binding sites
# Settings: protein concentration: 200 nM; construct: GST-full length
# In short: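 Masliner-normalised scans of fluorescent anti-GST signal were the basis for scoring. That signal came from GST-tagged yeast transcription factors applied at about 100-200 nM to double-stranded universal all-10-mer Agilent arrays on fresh or once-stripped slides. Each ungapped eight-base word, pooled with its reverse complement, received an E-score from the Universal PBM Analysis Suite.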
row,Sequence,PBM E-score
1,CCTGGTTC,-0.29
2,CTATGTCC,-0.0403
3,AAGGTTCT,-0.0996
4,CGCGAATA,0.0754
5,CAGAAATC,-0.0983
6,CAGACGTC,0.322
7,ACCCACAG,-0.101
8,CGATTTTA,0.0927
9,CCGTGAAC,-0.266
10,AGAAAATC,0.124
11,AGATCGAT,-0.0186
12,ACGATTTC,0.187
13,CAGCGGGA,-0.234
14,ATCAAGTC,0.0808
15,AGTCTCTG,-0.308
16,ACACACCG,-0.149
17,AGGAAAAA,0.0364
18,GCCGCAAA,-0.0851
19,ACCCTAAA,0.108
20,TATTAGAA,0.245
21,ACCATGGG,-0.291
22,GCAGGTAC,-0.262
23,GTATACTA,-0.047
24,CCCATGGG,-0.103
25,AGAAGCAT,-0.0822

row,Sequence,PBM E-score
1,CGTAATGC,0.454
2,TCAAGAAA,0.148
3,AATACCTA,0.26
4,ATGCTACC,-0.0649
5,CGCTACAG,-0.232
6,AAAGCGAT,0.0144
7,GAGAAAAA,0.0977
8,CACCAAGG,-0.289
9,TCCGGTAA,-0.0164
10,CAAGACGC,-0.143
11,GGAAAAAA,0.0497
12,ATTCGATA,0.151
13,ACATTTCA,0.0836
14,ATAGTTCA,0.0301
15,ATAATGCA,0.0309
16,AATCCCGA,0.105
17,GCCGGAAC,-0.27
18,ACACCCGG,-0.207
19,AGTTGCAT,0.0383
20,CGTGGAAA,0.214
21,ACAGCAAA,0.125
22,CTTGCTCA,-0.26
23,ACATACAT,0.303
24,CGCAGCAC,-0.109
25,AGAGCATA,-0.187

row,Sequence,PBM E-score
1,AATATGGG,-0.148
2,GCTCGGAC,-0.235
3,ATTCTTGC,0.0625
4,CGTCTGCC,-0.00999
5,GTCCACAC,-0.00777
6,CTGGAATA,0.0134
7,GATATATC,0.117
8,ACTGAGTA,-0.0657
9,AAGACCAG,-0.197
10,AACTACGC,0.305
11,CGTTTAGA,0.122
12,GAGCGCCA,-0.302
13,ACGGCGCG,0.0131
14,CGTCGACC,0.0891
15,ATAGCCGC,-0.0954
16,ACTCCATA,-0.0483
17,CACCGCAG,-0.277
18,GTAGCAAC,0.181
19,CACGTTGG,0.0694
20,AACAGGCA,-0.0464
21,CTTACACA,0.0832
22,GTCACCCA,0.0229
23,AGTAAAGA,0.0269
24,AATTTATC,0.157
25,ACCTGGAC,-0.316

row,Sequence,PBM E-score
1,CTAGATAC,0.152
2,AATCGGAG,-0.143
3,AAAACTAT,0.0433
4,CAAGACAA,0.069
5,GGGTGCCA,-0.219
6,TGCTCCCA,0.0122
7,AGCCACCG,-0.269
8,CTAGGTCC,-0.293
9,GCGACAGA,-0.0153
10,GAACACCC,-0.249
11,AATCTTTG,0.0752
12,GCAGCTGA,-0.164
13,CTACAAAA,0.101
14,AGGTAAAA,0.104
15,TTGTACAA,0.102
16,GAAGTCGA,-0.0594
17,GATTCCCC,-0.164
18,AACTGTTG,-0.179
19,ATGGTTTG,-0.0969
20,ATAGCAGA,-0.0268
21,AAGCCGCA,0.00253
22,GCTCTCAA,0.0152
23,AGCCAAGC,-0.245
24,GGGGACTA,-0.208
25,CTGGTACA,-0.00751

row,Sequence,PBM E-score
1,GAAAGGCC,-0.073
2,GGGAACCA,-0.104
3,CAAAACAG,-0.0368
4,CCTTACTC,-0.121
5,GCGGTGGA,-0.193
6,AGGCGGAT,-0.109
7,CACTTCTC,-0.219
8,ATTGCGAC,0.17
9,CTCCCGAG,-0.339
10,CGGCTGAG,-0.248
11,AGCTTATC,-0.129
12,CGAGTGCA,0.091
13,CTCGTAAG,0.243
14,GCATGTAC,0.0835
15,GGTGAGCA,-0.0791
16,CATAGCAA,0.0975
17,ATATTAAA,0.306
18,CTTTACGA,0.218
19,CGGTACCA,-0.229
20,TGTTAAAA,0.21
21,CCTGAAGC,-0.293
22,AAAAAGGA,-0.01
23,AAGTCCTG,-0.228
24,TAAGGTGA,0.0936
25,ACGCAGGC,0.0678

row,Sequence,PBM E-score
1,CGAAGTAG,-0.0675
2,CCTAGGCA,-0.257
3,CAGTAAAC,-0.0449
4,ACGTTAGC,0.352
5,ATGTACTG,-0.0689
6,ACGGCTCC,-0.209
7,CTCAGGTA,-0.0368
8,ACAACGAC,0.174
9,GAGGCCTC,-0.471
10,ATTAATAC,0.215
11,CTCAGGAG,-0.159
12,ACGGCTGC,-0.307
13,CCATCGAA,0.00557
14,CACCAGTG,-0.218
15,CAGACTAG,-0.234
16,CGCTGGAC,-0.172
17,AGTTTCAC,0.0462
18,CAGTTCCC,-0.152
19,CAGTTGGG,-0.154
20,ATAATCGA,0.0247
21,AGAGTGGG,-0.171
22,ACTTCCGC,-0.215
23,ACCGTCGC,-0.111
24,ACGCATAC,0.333
25,ACATGACT,-0.0468

row,Sequence,PBM E-score
1,CGCAGTCA,-0.00246
2,CTATTGCA,0.161
3,ACCTGTGG,-0.197
4,AGAACCCT,-0.272
5,CTCCTAGA,-0.243
6,CAAATAGA,0.106
7,GTACAAGA,0.0711
8,AGCTGTTA,0.0248
9,AAGCTGTA,0.19
10,ATTGAGCA,0.026
11,ACCCTCGA,-0.182
12,AAAATGAC,0.356
13,CTTCAATC,-0.0703
14,ACATTAAT,0.145
15,CGGAGGGC,-0.385
16,GATTGTCA,0.136
17,ATAACCCA,-0.0509
18,AACCTAGC,-0.123
19,AGAGAGAG,-0.151
20,CCGTTGGA,-0.119
21,CATTGCAC,0.0802
22,CAATTCCC,0.0939
